From the supplement of paper PMC8728848
The list shows a part of the results.

Experiments:
Experiment in all cases: glycan array binding signal (z-score within array); higher = stronger binding
Details in all cases: glycan notation: IUPAC condensed, linker removed
Fuc(a1-2)[Gal(a1-3)]Gal = target: Fuc(a1-2)[Gal(a1-3)]Gal
In short: (§1)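 Columns mapping to the same glycan were averaged after glycan names were converted to IUPAC-condensed notation. The data come from 3228 arrays in the Consortium for Functional Glycomics database, limited to those with an available protein sequence. Binding is reported as a within-array Z-score averaged across arrays of one protein sequence and across linkers.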

[1] = target: Fuc(a1-2)[Gal(a1-3)]Gal(b1-3)GlcNAc
In short: as §1

[2] = target: Fuc(a1-2)[Gal(a1-3)]Gal(b1-3)GlcNAc(b1-2)Man(a1-3)[Fuc(a1-2)[Gal(a1-3)]Gal(b1-3)GlcNAc(b1-2)Man(a1-6)]Man(b1-4)GlcNAc(b1-4)GlcNAc
In short: as §1

[3] = target: Fuc(a1-2)[Gal(a1-3)]Gal(b1-4)Glc
In short: as §1

[4] = target: Fuc(a1-2)[Gal(a1-3)]Gal(b1-4)GlcNAc
In short: as §1

[5] = target: Fuc(a1-2)[Gal(a1-3)]Gal(b1-4)GlcNAc(b1-2)Man(a1-3)[Fuc(a1-2)[Gal(a1-3)]Gal(b1-4)GlcNAc(b1-2)Man(a1-6)]Man(b1-4)GlcNAc(b1-4)GlcNAc
In short: as §1

[6] = target: Fuc(a1-2)[Gal(a1-3)]Gal(b1-4)[Fuc(a1-3)]GlcNAc
In short: as §1

[7] = target: Fuc(a1-2)[Gal(a1-4)]Gal(b1-4)GlcNAc
In short: as §1

[8] = target: Fuc(a1-2)[GalNAc(a1-3)]Gal
In short: as §1

[9] = target: Fuc(a1-2)[GalNAc(a1-3)]Gal(b1-3)GalNAc(a1-3)[Fuc(a1-2)]Gal(b1-4)GlcNAc
In short: as §1

[10] = target: Fuc(a1-2)[GalNAc(a1-3)]Gal(b1-3)GlcNAc
In short: as §1

[11] = target: Fuc(a1-2)[GalNAc(a1-3)]Gal(b1-3)GlcNAc(b1-2)Man(a1-3)[Fuc(a1-2)[GalNAc(a1-3)]Gal(b1-3)GlcNAc(b1-2)Man(a1-6)]Man(b1-4)GlcNAc(b1-4)GlcNAc
In short: as §1

[12] = target: Fuc(a1-2)[GalNAc(a1-3)]Gal(b1-4)Glc
In short: as §1

[13] = target: Fuc(a1-2)[GalNAc(a1-3)]Gal(b1-4)GlcNAc
In short: as §1

[14] = target: Fuc(a1-2)[GalNAc(a1-3)]Gal(b1-4)GlcNAc(b1-2)Man(a1-3)[Fuc(a1-2)[GalNAc(a1-3)]Gal(b1-4)GlcNAc(b1-2)Man(a1-6)]Man(b1-4)GlcNAc(b1-4)GlcNAc
In short: as §1

[15] = target: Fuc(a1-2)[GalNAc(a1-3)]Gal(b1-4)GlcNAc(b1-3)Gal(b1-4)GlcNAc
In short: as §1

[16] = target: Fuc(a1-2)[GalNAc(a1-3)]Gal(b1-4)GlcNAc(b1-3)Gal(b1-4)GlcNAc(b1-3)Gal(b1-4)GlcNAc
In short: as §1

[17] = target: Fuc(a1-2)[GalNAc(a1-3)]Gal(b1-4)[Fuc(a1-3)]GlcNAc
In short: as §1

[18] = target: Fuc(a1-2)[GalNAc(a1-4)]Gal(b1-4)GlcNAc
In short: as §1

[19] = target: Fuc(a1-2)[GalNAc(b1-3)]Gal
In short: as §1

Fuc(a1-3)GlcNAc = target: Fuc(a1-3)GlcNAc
In short: as §1

[20] = target: Fuc(a1-3)[Gal(b1-4)]Glc6S
In short: as §1

[21] = target: Fuc(a1-3)[Gal(b1-4)]GlcNAc
In short: as §1

[22] = target: Fuc(a1-3)[Gal(b1-4)]GlcNAc(b1-2)Man(a1-3)[Fuc(a1-3)[Gal(b1-4)]GlcNAc(b1-2)Man(a1-6)]Man(b1-4)GlcNAc(b1-4)GlcNAc
In short: as §1

[23] = target: Fuc(a1-3)[Gal(b1-4)]GlcNAc(b1-3)Gal(b1-3)[Fuc(a1-4)]GlcNAc
In short: as §1

[24] = target: Fuc(a1-3)[Gal(b1-4)]GlcNAc(b1-3)GalNAc
In short: as §1

[25] = target: Fuc(a1-3)[Gal(b1-4)]GlcNAc(b1-4)Gal(b1-4)[Fuc(a1-3)]GlcNAc
In short: as §1

[26] = target: Fuc(a1-3)[Gal(b1-4)]GlcNAc(b1-4)Gal(b1-4)[Fuc(a1-3)]GlcNAc(b1-4)Gal(b1-4)[Fuc(a1-3)]GlcNAc
In short: as §1

[27] = target: Fuc(a1-3)[Gal(b1-4)]GlcNAc(b1-6)[Gal(b1-3)GlcNAc(b1-3)]Gal(b1-4)Glc
In short: as §1

[28] = target: Fuc(a1-3)[Gal(b1-4)]GlcNAc6S
In short: as §1

[29] = target: Fuc(a1-3)[Gal3S(b1-4)]GlcNAc
In short: as §1

[30] = target: Fuc(a1-3)[Gal3S(b1-4)]GlcNAc6S
In short: as §1

[31] = target: Fuc(a1-3)[GalNAc(b1-4)]GlcNAc
In short: as §1

Fuc(a1-4)GlcNAc = target: Fuc(a1-4)GlcNAc
In short: as §1

Fuc(b1-3)GlcNAc = target: Fuc(b1-3)GlcNAc
In short: as §1

Gal(a1-2)Gal = target: Gal(a1-2)Gal
In short: as §1

Gal(a1-3)Gal = target: Gal(a1-3)Gal
In short: as §1

B1: SAG3 (Toxoplasma gondii), Q9BJ39 (protein)
chain: MQLWRRRAAGPASLGRQSLPLGCFFAAFGLCVLSAILGTGERGLFVAAGNSRRKITYFGTLTQKAPNWYRCSSTRAKEEVVGHVTLNKEHPDMTIECVDDGLGGEFLPLEGARSSYPRVCHIDAKDQDDCERNRGFLTDYIPGAKQYWYKIEKVEQNGEQSVLYKFTVPWILLPPAKQRYKVGCRYPNHEYCFVEVTVEPTPPMVEGKRVTCGYSESGPVNLEVDLSKNANFIEIRCGEQHHPQPSTYTLQYCSGDSVDPQKCSPQSLTNIFYDYSSSWWKGKLNGPDGATLTIPPGGFPEEDKSFLVGCSLTVDGPPFCNVKVRVAGNPRKWERGGGGHPGSGGLQPGTDGETQAGTGSSAGASSRMASVALAFLLGLLVHVAA
- glycan array binding signal (z-score) (Fuc(a1-2)[Gal(a1-3)]Gal): -0.263
- glycan array binding signal (z-score) [1]: -0.365
- glycan array binding signal (z-score) [2]: 0.257
- glycan array binding signal (z-score) [3]: -0.148
- glycan array binding signal (z-score) [4]: 0.112
- glycan array binding signal (z-score) [5]: -0.113
- glycan array binding signal (z-score) [6]: -0.067
- glycan array binding signal (z-score) [7]: -0.081
- glycan array binding signal (z-score) [8]: 0.084
- glycan array binding signal (z-score) [9]: -0.108
- glycan array binding signal (z-score) [10]: 0.17
- glycan array binding signal (z-score) [11]: -0.473
- glycan array binding signal (z-score) [12]: -0.134
- glycan array binding signal (z-score) [13]: -0.276
- glycan array binding signal (z-score) [14]: -0.306
- glycan array binding signal (z-score) [15]: -0.084
- glycan array binding signal (z-score) [16]: 0.11
- glycan array binding signal (z-score) [17]: 0.385
- glycan array binding signal (z-score) [18]: -0.046
- glycan array binding signal (z-score) [19]: -0.518
- glycan array binding signal (z-score) (Fuc(a1-3)GlcNAc): -0.204
- glycan array binding signal (z-score) [20]: 0.631
- glycan array binding signal (z-score) [21]: 0.204
- glycan array binding signal (z-score) [22]: -0.15
- glycan array binding signal (z-score) [23]: -0.032
- glycan array binding signal (z-score) [24]: 2.86
- glycan array binding signal (z-score) [25]: -0.174
- glycan array binding signal (z-score) [26]: 0.453
- glycan array binding signal (z-score) [27]: 0.169
- glycan array binding signal (z-score) [28]: -0.464
- glycan array binding signal (z-score) [29]: -0.111
- glycan array binding signal (z-score) [30]: 0.176
- glycan array binding signal (z-score) [31]: -0.554
- glycan array binding signal (z-score) (Fuc(a1-4)GlcNAc): -0.434
- glycan array binding signal (z-score) (Fuc(b1-3)GlcNAc): 0.343
- glycan array binding signal (z-score) (Gal(a1-2)Gal): 0.002
- glycan array binding signal (z-score) (Gal(a1-3)Gal): -0.317
